Source: the supplement of paper PMC9446081
The whole screen tested about 39,000 compounds, of which about 220 (0.56%) showed activity. Some of the results follow.

tested on: Escherichia coli K-12 BW25113; experiment: relative growth (OD600 normalised to plate interquartile mean) (fraction); higher = less growth inhibition, active = 0.2 or less; conditions: 50 µM; LB; incubation time: overnight (16-24 h)
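Note: static incubation at 37 °C against the wild-type strain, values averaged over two biological replicates.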

Compound	relative growth
Cc1noc(C)c1NC(=O)Nc1ccc2c(c1)C(=O)N([C@H](C)CO)C[C@H](C)[C@@H](CN(C)C(=O)Nc1ccc3c(c1)OCO3)OCCCC[C@H](C)O2	inactive: 1.04
C[C@H](CO)N1C[C@H](C)[C@@H](CN(C)Cc2ccc(C(=O)Nc3ccccc3N)cc2)Oc2ccc(NC(=O)Cc3ccccc3)cc2C1=O	inactive: 1.01
C[C@@H]1CCCCO[C@@H](CN(C)C(=O)Nc2ccc(F)cc2)[C@H](C)CN([C@H](C)CO)C(=O)c2cc(NC(=O)Cc3ccccc3)ccc2O1	inactive: 1.03
CSc1nc(=O)cc(O)[nH]1	inactive: 1.01
CCO[C@H]1CC(C)(C)NC(=S)N1	inactive: 0.829
C[C@@H]1CN([C@@H](C)CO)C(=O)c2cc(C#C[C@@H](C)O)cnc2O[C@H]1CN(C)C(=O)CN1CCOCC1	inactive: 0.987
Cc1noc(C)c1S(=O)(=O)Nc1ccc2c(c1)CC(=O)N([C@H](C)CO)C[C@@H](C)[C@@H](CN(C)C(=O)Nc1ccc3c(c1)OCO3)O2	inactive: 0.997
CCCC(=O)Nc1ccc2c(c1)C(=O)N(C)C[C@@H](OC)[C@@H](C)CN(Cc1ccc(-c3ccccn3)cc1)[C@@H](C)CO2	inactive: 1.01
O=C(C1=C[C@@H](c2ccc(C(F)(F)F)cc2)C[C@@H](OCc2ccc(CO)cc2)O1)N1CCN(Cc2ccc3c(c2)OCO3)CC1	inactive: 0.984
CCNC(=O)C[C@H]1C=C[C@@H](NC(=O)C2CCOCC2)[C@@H](CO)O1	inactive: 1
Cc1ccc(-c2ccc3c(c2)O[C@@H](CN(C)C(=O)NC(C)C)[C@@H](C)CN([C@H](C)CO)S3(=O)=O)cc1	inactive: 0.961
CCNC(=O)[C@H]1N[C@H]2c3ccc(-c4cccc(C(=O)N(C)C)c4)c(=O)n3C[C@H]2[C@@H]1CO	inactive: 1
C[C@@H]1O[C@@H](O[C@H]2[C@H](Oc3cc(O)c(C(=O)CCc4ccc(O)cc4)c(O)c3)O[C@H](CO)[C@@H](O)[C@@H]2O)[C@H](O)[C@H](O)[C@H]1O	inactive: 0.977
COc1ccc(CN(C)C[C@H]2Oc3c(NC(=O)c4ccc(-c5nccs5)cc4)cccc3C(=O)N([C@H](C)CO)C[C@@H]2C)cc1	inactive: 1.01
C[C@@H]1CN([C@@H](C)CO)C(=O)c2cc(C#Cc3cccc(F)c3)cnc2O[C@@H]1CN(C)C(=O)C1CCOCC1	inactive: 1.05
COc1cccc(S(=O)(=O)N(C)C[C@@H]2Oc3ncc(C#CC(C)C)cc3C(=O)N([C@@H](C)CO)C[C@@H]2C)c1	inactive: 1.01
COc1ccc(S(=O)(=O)N(C)C[C@H]2Oc3c(NC(=O)Nc4c(C)noc4C)cccc3C(=O)N([C@@H](C)CO)C[C@H]2C)cc1	inactive: 1.02
COc1ccc(S(=O)(=O)N(C)C[C@@H]2Oc3ccc(N(C)C)cc3C(=O)N([C@@H](C)CO)C[C@H]2C)cc1	inactive: 1.05
C[C@H](CO)N1C[C@H](C)[C@H](CN(C)C(=O)Nc2ccc(Cl)cc2)OCCCC[C@H](C)Oc2ccc(NC(=O)C3CCCCC3)cc2C1=O	inactive: 0.989
C[C@@H]1CCCCO[C@@H](CN(C)Cc2ccc(C(F)(F)F)cc2)[C@@H](C)CN([C@@H](C)CO)C(=O)c2cc(NS(=O)(=O)c3ccc(Cl)cc3)ccc2O1	inactive: 1.04

Compound	relative growth
Cc1cn(Cc2ccccc2)c(=O)[nH]c1=O	inactive: 0.988
C[C@@H]1CN([C@H](C)CO)C(=O)c2cc(NC(=O)Cc3ccccc3)ccc2O[C@@H](C)CCCCO[C@H]1CN(C)C(=O)C1CCCCC1	inactive: 0.992
COc1cccc(S(=O)(=O)N(C)C[C@@H]2Oc3ncc(-c4cccc(C(=O)N(C)C)c4)cc3C(=O)N([C@@H](C)CO)C[C@@H]2C)c1	inactive: 1.01
C[C@@H]1CN([C@H](C)CO)C(=O)c2cccc(NC(=O)Nc3ccc(C(F)(F)F)cc3)c2O[C@@H]1CN(C)C(=O)Nc1ccccc1	inactive: 0.865
CC(C)NC(=O)N[C@H]1C=C[C@H](CC(=O)NCCCN(C)C)O[C@H]1CO	inactive: 1
C[C@@H]1CCCCO[C@@H](CN(C)C(=O)c2ccccc2)[C@@H](C)CN([C@@H](C)CO)C(=O)c2cc(NC(=O)Nc3ccccc3)ccc2O1	inactive: 1
O=C(CCc1cn(CC(=O)N2CCC3(CC2)C(=O)NCN3c2ccccc2)nn1)NO	inactive: 0.974
C[C@@H]1CN([C@H](C)CO)C(=O)CCCn2nncc2CO[C@@H]1CN(C)C(=O)Nc1cccc(C(F)(F)F)c1	inactive: 0.955
Cc1ccc(S(=O)(=O)N(C)C[C@@H]2OCCCC[C@H](C)Oc3ccc(NC(=O)Cc4ccccc4)cc3C(=O)N([C@H](C)CO)C[C@@H]2C)cc1	inactive: 1.01
C[C@H]1CN([C@@H](C)CO)C(=O)c2cc(NC(=O)CCCN(C)C)ccc2O[C@H]1CN(C)C(=O)Nc1ccc(F)cc1	inactive: 1.02
CC(C)CC#Cc1ccc2c(c1)O[C@H](CN(C)C(=O)NC1CCCC1)[C@@H](C)CN([C@H](C)CO)S2(=O)=O	inactive: 1.04
C[C@@H]1CN([C@@H](C)CO)C(=O)CCCn2cc(nn2)CO[C@@H]1CN(C)S(=O)(=O)c1ccccc1C#N	inactive: 0.992
Cc1cn2nc([C@@H]3CCCCN3C(=O)c3cc(Cl)ccc3NS(C)(=O)=O)cc2nc1N1CC[C@H](N)C1	inactive: 0.981
C[C@@H]1CN(S(=O)(=O)N2CCN(C(=O)c3[nH]nc4ccccc34)CC2)C[C@H](C)O1	inactive: 1.02
C[C@@H]1CN([C@@H](C)CO)C(=O)c2cc(N(C)C)ccc2O[C@@H](C)CCCCO[C@H]1CN(C)Cc1ccc(C(F)(F)F)cc1	inactive: 0.991
C[C@@H]1CN([C@H](C)CO)C(=O)c2cc(NC(=O)Nc3ccc(F)cc3)ccc2O[C@@H]1CN(C)Cc1ccc(Cl)c(Cl)c1	inactive: 0.994
C[C@@H]1CCCCO[C@H](CN(C)C(=O)c2ccccc2)[C@H](C)CN([C@@H](C)CO)C(=O)c2cc(NS(=O)(=O)c3ccccc3)ccc2O1	inactive: 1.01
Cn1cnc(S(=O)(=O)N[C@H]2CC[C@H](CC(=O)N3CCN(c4ccccc4)CC3)O[C@@H]2CO)c1	inactive: 0.999
Cc1noc(C)c1S(=O)(=O)Nc1cccc2c1O[C@H](CN(C)CC1CC1)[C@H](C)CN([C@@H](C)CO)C2=O	inactive: 0.982
C[C@@H]1CCCCO[C@@H](CN(C)S(C)(=O)=O)[C@H](C)CN([C@@H](C)CO)C(=O)c2cc(NC(=O)Nc3cccc4ccccc34)ccc2O1	inactive: 0.956

Compound	relative growth
Cc1c(N(C)CS(=O)(=O)[O-])c(=O)n(-c2ccccc2)n1C.[Na+]	inactive: 1.01
C[C@H](CO)N1C[C@H](C)[C@H](CN(C)CC2CC2)Oc2cc(C#Cc3ccc(F)cc3)ccc2S1(=O)=O	inactive: 1.02
C[C@H]1CN([C@@H](C)CO)S(=O)(=O)c2ccc(C#CC3CC3)cc2O[C@@H]1CN(C)C(=O)C1CCCCC1	inactive: 0.996
C[C@H]1CCCCO[C@H](CN(C)C(=O)Nc2ccc3c(c2)OCO3)[C@@H](C)CN([C@@H](C)CO)C(=O)c2cc(NC(=O)Cc3ccccc3)ccc2O1	inactive: 0.999
COc1ccc(S(=O)(=O)Nc2ccc3c(c2)C(=O)N([C@H](C)CO)C[C@H](C)[C@H](CN(C)C(=O)Nc2ccccc2)OCCCC[C@H](C)O3)cc1	inactive: 1
C[C@@H]1CCCCO[C@H](CN(C)C(=O)NC2CCCCC2)[C@@H](C)CN([C@@H](C)CO)C(=O)c2cc(NC(=O)Nc3ccc(C(F)(F)F)cc3)ccc2O1	inactive: 0.991
Cc1ccc(S(=O)(=O)Nc2ccc3c(c2)C(=O)N([C@H](C)CO)C[C@H](C)[C@@H](CN(C)C(=O)Nc2cccc4ccccc24)OCCCC[C@H](C)O3)cc1	inactive: 1.03
Cc1ccc(S(=O)(=O)Nc2cccc3c2O[C@H](CN(C)Cc2ccc(-c4ccccc4)cc2)[C@H](C)CN([C@H](C)CO)C3=O)cc1	inactive: 1.01
N[C@H]1CC[C@@H](NC(=O)[C@H]2CCc3ccccc32)CC1	inactive: 0.971
COCCOC(=O)N1C(=O)[C@@]2(c3cc(C#CC4=CCCCC4)ccc31)[C@H](c1ccccc1OCCO)N1[C@H](c3ccccc3)[C@H](c3ccccc3)OC(=O)[C@H]1[C@@H]2C(=O)N1CCCCCCC1	inactive: 1.04
COc1ccc(NC(=O)O[C@H]2[C@H](OC(=O)Nc3ccccc3-c3ccccc3)[C@H](OC(=O)Nc3ccccc3-c3ccccc3)[C@@H](OC)O[C@@H]2CO)cc1	inactive: 1.06
COc1ccc(NC(=O)Nc2ccc3c(c2)C(=O)N([C@H](C)CO)C[C@H](C)[C@H](CN(C)CC2CC2)OCCCC[C@H](C)O3)cc1	inactive: 0.961
CCCCC[C@@H](O)[C@H]1C(=O)O[C@H](C)[C@@H](O)/C=C/C=C/C=C/C=C/C=C(\C)[C@@H](O)C[C@H](O)C[C@H](O)C[C@H](O)C[C@H](O)C[C@H](O)C[C@@H]1O	inactive: 0.991
NCc1c(Cl)cccc1Cl	inactive: 0.997
CO[C@H]1CN(C)C(=O)c2cc(NS(C)(=O)=O)ccc2OC[C@@H](C)N(C(=O)C2CCCCC2)C[C@H]1C	inactive: 0.998
O=C(C[C@H]1CC[C@H](NC(=O)CN2CCOCC2)[C@H](CO)O1)NCCc1ccccc1	inactive: 0.965
C[C@@H]1CN([C@@H](C)CO)C(=O)c2cccc(NS(=O)(=O)c3cn(C)cn3)c2O[C@H]1CN(C)S(=O)(=O)c1cccs1	inactive: 0.986
C[C@@H]1NC(=O)NC1=O	inactive: 0.984
